From the supplement of paper PMC12632987
Whole data set: some 2,300 sequences, median “median log2 fold change of GCK-ALFA target abundance (FLAG IP / Myc IP barcode read proportion)” near 0.095, cut for the lowest 2% near -0.47. Some of the results follow.

B1: LC3A_127_198 (protein)
chain: EEKELLEKLIELIEKAIEAVDQIKEKGQKARDEAIKLLKEALKLLEKIPELKESAEDLKQAIKLLEQLKDLSPAEQEEAIDHIKMLLDGVLIEVESKLLE
B2: LC3A_147_463 (protein)
chain: KLYEVTLDILVKDLTEEMKKDFEAMAEEIKKAVPNAKVELKFETDPEDPSETLVTLTVTVETEEDAEKVLDLVSEKMEEFEKKYSDQVIASMISREEIEL
B3: LC3A_78_2088 (protein)
chain: MVTIIIASSEETKKYAEEIAKKRTDADKVIVVLKEDLEKVLEEYKDEEEIEVIIVAKTEEEALELEEEVKKLLSDYKQSSIIEIDEETGIYTSHILAEKK
B4: LC3A_147_490 (protein)
chain: ARVDVDVLVKGKEAAEEIIEEVKKIVEEEKKKGVKVELEVKVEEIEPGIYYVEIKITVTAETPEEAMKAAREIEKKIDEIIEKNKERTLAALISIEEIER
B5: LC3A_17_548 (protein)
chain: MEELRKEIEELLKKLEELIKELKKYDPEAAKKLEKKAEEARKLLEEGKLREAAELLEEIARELSEVFDELEPKYGNEMSVKSMEASGLELEAIGILLKLE
B6: LC3A_28_1317 (protein)
chain: GSIEKELEKARKEAEEAAAKGEDILLEIKITGSTTVEEAEEMMEELEKIAKKYAPTHKISIIIDVDGSVSQEVIDLIAEKGEEIEEKYPNVTVIIALDEN
B7: LC3A_28_781 (protein)
chain: NALRENIERALEEARKAAERGEEVTLEITIPATATQEDIELVIKALEEIAELSEKMKSVSIVIDIEAGVPQEHIVLLSEKGDELSKRNPKVTVVFALEEP
B8: LC3A_free_46_2391 (protein)
chain: IEGEIDLLLKGATEEQVKELAEYAVEKIKELAEKKGINVEIEVEIEKLEDGDYYIKITVKSDSKDENKVLDILDETEEAIEEKAKELGIKVSSIISVSKK
B9: LC3A_free_46_2339 (protein)
chain: YKVEVTVDTLAAPKEKVEEFVEKLVKGAKEIAKELGGEIKIEVEFFENEDGTWSAEITIEIKVETEEKAKEAAEKLGKKIDELDEEYGIVGMVSIEIIKE
B10: LC3A_free_46_2302 (protein)
chain: YKAKIDIDIGGLNEEETKKLVEELVEEFKKIAEELGAEIEIEVEITTDEEGETFAKINITIKAKDKETLEKAVTKIIDKVDELVKKTGAAALISVEFEEE
B11: LC3A_147_457 (protein)
chain: KKYVISVDVLFRNDPALADEVEKKLEEIAKKYGGKVKVERQEEQVTPTTTEYFLHVDITFEDKEKAQKALDEVSALLDATAAAHPDSFVGSMISFDEEEE
B12: LC3A_3_1479 (protein)
chain: MAAERAATLAELRAAGASEETLAAVAAALDALEAKGYEGAARTFLEEMRRLAGEPDETLLAIAELALELVETESLSEEELSARIREIAEDVSGIEELDEE
B13: LC3A_132_267 (protein)
chain: SEELFEEALEELKEILDKIVDLLKAGKDPSPAITELYNTALEYSEKLSLEETEELVEKTIEYAEKLFAERLDPNDVEARRTLDIIEMLLEGVLIEKELRS
B14: LC3A_28_1027 (protein)
chain: SAAEKAIEKAREEARKQKAEGKDIYVTIEVTSSTTLEDAKTIVEGIREIVEEFKDEKNINIIIDVERGVSQEVIDTLADGAEEIEKEYPNVNIIIALEEE
B15: LC3A_127_186 (protein)
chain: EVEKLAEELIKKLEEAIDELDKPDPDKEKIKKLLEEAKKLAEELVKLDPRFKPVLEDIEKAIELFKQYLAAPPEEQEALREHLQMLLDGAIIEVESLLLK
B16: LC3A_3_1668 (protein)
chain: GEEKLKELLKWLKEEGKSEEVLEAVREALEALIEKGYFEAADTFIELMKEMKDLSDELLLDFANDVLELVKTEDIDEETLTKKIKEIARVIRLEEEIEEL
B17: LC3A_free_26_2147 (protein)
chain: SEYVDLYAIDEAEENLEEALKLLKELGNKNEELKKLLEEALKNVKKETLESLKKAEKNIKEAIKLVKEDKSLSEEDKKKLLELLEKALEKVEETIKIMES
B18: LC3A_13_342 (protein)
chain: TLRLEVETPEELRERGRALLEAHPGETIEIVVTVRDWEEAEAVARELAELIALAREKGSTLRITLRGPRSHVNYAAVLINSDILENGVDPNVTVTTEEVP
B19: LC3A_3_1655 (protein)
chain: MEELIEKTLEYLKKKGKSEEVLEAVRKALEALKEKGYEEAMKTFAELLKELEDLSDEILLAFAEDVLELAETEDIDEETMTEKIKEIAKTARNEAEIEEL

molecular target: MAP1LC3A, Q9H492; experiment: median log2 fold change of GCK-ALFA target abundance (FLAG IP / Myc IP barcode read proportion) (log2 ratio); each designed protein is fused to an ALFA-tag nanobody in HEK293 cells to bring the named protein to FLAG-tagged glucokinase (GCK); Myc marks an untargeted standard; higher = target protein stabilised (more abundant); settings: target protein: 3xFLAG-MCP-GCK-ALFA reporter; HEK293 landing pad (RPLP)
In short: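 HEK293 landing-pad cells received a recombined binder library fused to the ALFA nanobody and were induced with 2 μg mL^−1 doxycycline, then transfected with a plasmid encoding a FLAG-tagged target and a Myc-tagged standard. Lysates were collected after 48 h for anti-FLAG and anti-Myc immunoprecipitation, and the circular RNA barcodes were reverse transcribed, amplified and sequenced. Target abundance for each binder is the median log2 ratio of FLAG to Myc barcode read proportions. Barcodes had to reach a proportion of at least 10^−7 in both replicates, each binder needed at least 3 barcodes per replicate, a pseudocount of 10^−6 was applied, and the two replicates were pooled.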

Binder | median log2 fold change
B1 | 0.256
B2 | -0.0531
B3 | 0.188
B4 | 0.103
B5 | 0.204
B6 | 0.146
B7 | 0.149
B8 | -0.0207
B9 | 0.182
B10 | -0.169
B11 | 0.352
B12 | 0.281
B13 | -0.528
B14 | 0.173
B15 | 0.0193
B16 | 0.133
B17 | -0.135
B18 | 0.255
B19 | 0.204
